Among all 310,000 compounds or so, about 18,000 (5.8%) were called active. The inconclusive results got no clear call from the source; some entries with a clear call stand among them for comparison. Calls follow the shape of the dose curve; as a rule, active = well fitted inhibition curve with a large enough effect; inconclusive = small, poorly fitted or top-dose-only effect, or another doubt; inactive = no such curve, though single readings can be large or run the other way. Potencies of inconclusive entries are left out as doubtful fits.
Assay: Primary qHTS for delayed death inhibitors of the malarial parasite plastid, 48 hour incubation
Conditions: P. falciparum luciferase growth in erythrocytes; series mostly up to 28.7 µM
In short: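 Firefly luciferase activity from engineered P. falciparum reports growth; inhibitors lower the luminescent signal. Cultures contained 2% hematocrit erythrocytes at 0.1% final parasitemia.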
Potency is read from the fitted curve at half-maximal effect; tags tell the direction and shape of the fitted curve.

Structure (SMILES)	Potency
NNC(=O)CNC(c1ccccc1)c1cc(Br)ccc1NC(=O)c1ccccc1Br (stereo unspecified)	active: 8.28 µM
COc1ccc(S(=O)(=O)c2nnn(-c3cccc(Cl)c3)c2N)cc1	inconclusive [inhibitor, single point]
Cc1ccc(-c2nc(NC(=O)CSc3nnc4scc(-c5ccccc5)n34)ns2)cc1	inconclusive [inhibitor, partial curve, poor fit]
O=c1c(CN2CCN(c3cccc(Cl)c3)CC2)coc2c(Cl)cc(Cl)cc12	inconclusive [inhibitor, partial curve, poor fit]
Cn1c(/C=N/NC(=O)c2ccccc2)nc2ccccc21	inconclusive [inhibitor, single point]
Cc1ccc(CNC(=O)c2cc(-c3ccccc3)n(Cc3cc(C)no3)n2)cc1	inconclusive [inhibitor, single point]
CSc1nnc(-c2cc(Br)ccc2N=Cc2c(C)[nH]n(-c3ccccc3)c2=O)c(=O)[nH]1	inconclusive [inhibitor, single point]
Cc1ccc(S[C@@H](CCN2CC[C@H](C(C)(C)C)CCC2=O)c2ccccc2)cc1	inconclusive [inhibitor, single point]
Cc1ccc(OCCC(=O)Nc2ccc(S(=O)(=O)Nc3nccs3)cc2)cc1	inconclusive [inhibitor, single point]
Cn1nnnc1SCc1ccccc1F	inactive
COc1ccc(CCN(C)C(=O)c2cc(S(=O)(=O)N3CCCCCC3)ccc2OC)cc1OC	inconclusive [inhibitor, partial curve]
O=C(Nc1ccc2ccccc2c1)N1CCCN(CCOc2ccccc2)CC1	inconclusive [inhibitor, single point]
COc1ccc(CNc2nc(-c3cccnc3)nn2C(=O)C(C)C)cc1	inconclusive [inhibitor, partial curve, poor fit]
CCn1c(/C=C/c2c(C)[nH]c3ccccc23)nc2ccccc2c1=O	inactive
CCOC(=O)c1cccc(NC(=O)CCNS(=O)(=O)c2cc(Br)cnc2N)c1	inconclusive [inhibitor, partial curve]
CC(CN1CCCCC1)OC(=O)c1cccc(F)c1 (stereo unspecified)	inactive
COc1cc(OC)c(OC)cc1/C=N/n1c(COc2ccccc2)n[nH]c1=S	inactive
Cc1ccc(-c2nc(S(=O)(=O)c3ccc(C)cc3)c(N(C)C)o2)cc1	inactive
COc1cc(NC(=O)c2ccno2)cc(C(=O)Nc2cccc(C(F)(F)F)c2)c1	inconclusive [inhibitor, single point]
OC(CNCC1CCCO1)Cn1c2ccccc2c2ccccc21 (stereo unspecified)	active: 4.65 µM
CCOC(=O)c1cnc2ccc(OCC)cc2c1NCc1ccccc1OC	active: 11.7 µM
NS(=O)(=O)c1ccc(CCNC(=O)/C=C/c2ccc([N+](=O)[O-])cc2)cc1	inconclusive [inhibitor, full curve, poor fit]
S=C(NCc1ccccn1)Nc1ccc(Cl)cc1	inconclusive [inhibitor, partial curve]
O=S(=O)(c1ccc(NCCCO)nc1)N1CCOCC1	inconclusive [inhibitor, single point]

Structure (SMILES)	Potency
O=C(O)CCCC(=O)N1N=C(c2ccco2)CC1c1ccco1 (stereo unspecified)	inactive
CCOC(=O)c1cnc(-n2nc(C)cc2C)nc1N(CC)CC	active: 11.7 µM
Cc1ccc(NC(=O)C2COc3ccccc3O2)cc1S(=O)(=O)N1CCOCC1 (stereo unspecified)	inconclusive [inhibitor, single point]
O=C(NCC1CCCO1)c1ccc(NC(=O)c2ccc([N+](=O)[O-])cc2)cc1 (stereo unspecified)	inconclusive [inhibitor, partial curve, poor fit]
Cc1c(/C=N/Nc2nc3ccccc3[nH]2)c2ccccc2n1C	active: 0.522 µM
C/C(=N\NC=O)c1ccncc1	inactive
O=C(CSc1nc2scc(-c3ccco3)c2c(=O)n1-c1ccccc1)NCC1CCCO1 (stereo unspecified)	inactive
FC(F)(F)c1cccc(N2CCC(N=CN3CCCCCC3)=N2)c1	inconclusive [inhibitor, partial curve, poor fit]
CC1CN=C(NCc2ccccc2Cl)S1 (stereo unspecified)	inconclusive [inhibitor, full curve, poor fit]
CC#CC(=O)N1CCC(Oc2cccc(C(=O)NCc3ccccn3)c2)CC1	inconclusive [inhibitor, partial curve]
CC(C)c1ccc(N(CC(=O)NCc2ccco2)C(=O)CCC(=O)Nc2nccs2)cc1	inconclusive [inhibitor, full curve, poor fit]
Cc1ccc(-c2ccc(C3C(C#N)=C(N)Oc4n[nH]c(C)c43)o2)cc1 (stereo unspecified)	inconclusive [inhibitor, single point]
COc1ccc(-c2cc(-c3ccccc3)nc(NN)n2)cc1OC	inconclusive [inhibitor, partial curve]
CCOC(=O)C1CCCN(C(=O)c2ccc(S(=O)(=O)NCc3ccco3)cc2)C1 (stereo unspecified)	inconclusive [inhibitor, partial curve, poor fit]
CCOc1nc(NCCO)nc(NCCC2=CCCCC2)n1	inconclusive [inhibitor, single point]
COC(=O)c1cc(S(=O)(=O)NCC2CCN(CCc3ccc(OC)cc3)CC2)c[nH]1	inactive
COc1ccc2[nH]c(-c3cccc(F)c3)cc(=O)c2c1	inconclusive [inhibitor, single point]
O=[N+]([O-])c1ccc(N/N=C/c2cn(Cc3ccc(F)cc3)c3ccccc23)nc1	inactive
CC[C@H]1OC(=O)[C@H](C)C(=O)[C@H](C)[C@@H](OC2O[C@H](C)C[C@H](N(C)C)[C@@H]2O)[C@@](C)(OC)C[C@@H](C)C(=O)[C@@H](C)C2N(CCCCn3cnc(-c4cccnc4)c3)C(=O)O[C@@]21C (stereo partly specified)	inconclusive [inhibitor, single point]
CC(Oc1ccccc1Cl)C(=O)Nc1ccc(S(=O)(=O)N2CCCC2)cc1 (stereo unspecified)	active: 13.1 µM
O=C(COc1ccccc1Cl)N1N=C(c2cccs2)CC1c1ccco1 (stereo unspecified)	inconclusive [inhibitor, single point]
COc1ccc(-c2nc(NC(=O)Cn3cnnn3)sc2C)cc1	inactive
NS(=O)(=O)c1ccc(CCNCC(=O)N2CCC(Cc3ccccc3)CC2)cc1	inactive
Cc1cc(C)c(S(C)(=O)=O)c(Sc2ccc(Cl)cc2)n1	inconclusive [inhibitor, partial curve, poor fit]

Structure (SMILES)	Potency
COP(=O)(OC)C(NC(=O)Nc1ccccc1)c1ccccc1 (stereo unspecified)	inactive
O=C(c1ccco1)N1CCN(C(c2ccc(Cl)cc2)c2nnnn2Cc2ccccc2)CC1 (stereo unspecified)	active: 11.7 µM
CCCc1cc(N2CCCC2)n2nc(C)c(-c3ccccc3)c2n1	inconclusive [inhibitor, single point]
CCN1c2ccccc2-c2nc3ccccc3n2C1c1ccncc1 (stereo unspecified)	active: 5.22 µM
COc1ccc(Nc2ncnc3sccc23)cc1OC	inactive
CCCNC(=O)c1c(C)cc(=O)oc1C	inactive
CC(=O)c1ccc(OC(=O)c2cccs2)cc1	inactive
CCCN1C(=O)SC(CC(=O)Nc2ccccc2C)C1=O (stereo unspecified)	inactive
NC(=O)CC(NC(=O)Cc1ccc(Br)cc1)c1ccc(NC2CC3CCC2C3)c([N+](=O)[O-])c1 (stereo unspecified)	inactive
COCCn1c(SCC(=O)Nc2cc(C)on2)nc2cc(Cl)ccc2c1=O	inconclusive [inhibitor, partial curve]
COc1ccc(CN2CCNC(=O)C2CC(=O)N2CCCCO2)cc1OC (stereo unspecified)	inactive
CC(C)CC(=O)Nc1nnc(S(=O)(=O)N2c3ccccc3CC2C)s1 (stereo unspecified)	inactive
CCOC(=O)C1(CC2CCCCO2)CCN(Cc2c(C)cc(C)cc2-n2cccn2)CC1 (stereo unspecified)	inconclusive [inhibitor, full curve, poor fit]
O=C(CCC(=O)N1CCOc2ccc(Cl)cc21)NCCCN1CCN(Cc2ccccc2)CC1	inconclusive [inhibitor, partial curve, poor fit]
N/C(=N\OC(=O)C12CC3CC(CC(C3)C1)C2)c1ccccc1	inconclusive [inhibitor, single point]
COC(=O)c1c(-c2ccc(C)cc2)csc1NC(=S)NC(=O)c1ccc(F)cc1	inconclusive [inhibitor, partial curve]
OCCC1CN(CCCc2ccccc2)CCN1CCc1ccccc1 (stereo unspecified)	inconclusive [inhibitor, full curve, poor fit]
O=S(=O)(c1ccc(Cl)cc1)N1CCN(C(=S)Nc2ccccc2F)CC1	active: 0.928 µM
O=C(NC(CO)C(=O)OCc1ccccc1)OCc1ccccc1 (stereo unspecified)	inactive
COc1ccc(NC(=O)CN(C)C(=O)c2ccccc2Sc2ncnc3sc(C)c(C)c23)cc1	inconclusive [inhibitor, single point]
CCC(=O)N(CCC(Cc1ccccc1)c1ccco1)Cc1ccco1 (stereo unspecified)	inconclusive [inhibitor, partial curve]
O=C(CC1NC(=S)NC1=O)c1ccc(Cl)cc1 (stereo unspecified)	inactive
COc1cc(NC(C)CCCN)c2ncccc2c1Oc1ccccc1 (stereo unspecified)	inconclusive [inhibitor, full curve]

— PubChem BioAssay AID504832 (National Center for Advancing Translational Sciences (NCATS), 2011)
